Molecular target: BRD4 (BDII_E352-M457) (Homo sapiens, UniProt O60885)
Assay: TR-FRET bromodomain binding assay, BRD4 BDII

Row | Structure (SMILES) | Ki [nM]
1 | CC(=O)NC1CCC(C)(Oc2cc(=O)n(C)cc2-c2cc(C(C)(C)O)ccc2Oc2c(C)cc(F)cc2C)CC1 (stereo not drawn) [Example 84, N-[trans-4-({5-[2-(4-fluoro-2,6-dimethylphenoxy)-5-(2-hydroxypropan-2-yl)phenyl]-1-methyl-2-oxo-1,2-dihydropyridin-4-yl}oxy)-4-methylcyclohexyl]acetamide] | 368
2 | Cc1cc(F)cc(C)c1Oc1ccc(C(C)(C)O)cc1-c1cn(C)c(=O)cc1O[C@H]1CC[C@H](NC(=O)CCC(C)(C)O)CC1 [Example 119, N-[trans-4-({5-[2-(4-fluoro-2,6-dimethylphenoxy)-5-(2-hydroxypropan-2-yl)phenyl]-1-methyl-2-oxo-1,2-dihydropyridin-4-yl}oxy)cyclohexyl]-4-hydroxy-4-methylpentanamide] | 6.84
3 | Cc1cc(F)cc(C)c1Oc1ccc(C(C)(C)O)cc1-c1cn(C)c(=O)cc1O[C@H]1CC[C@H](NC(=O)C(C)(C)CCCO)CC1 [Example 79, N-[trans-4-({5-[2-(4-fluoro-2,6-dimethylphenoxy)-5-(2-hydroxypropan-2-yl)phenyl]-1-methyl-2-oxo-1,2-dihydropyridin-4-yl}oxy)cyclohexyl]-5-hydroxy-2,2-dimethylpentanamide] | 1.71
4 | Cc1cc(F)cc(C)c1Oc1ccc(C(C)(C)O)cc1-c1cn(C)c(=O)cc1O[C@H]1CC[C@H](N2C(=O)N(C)C3(CC3)C2=O)CC1 [Example 145, 6-[trans-4-({5-[2-(4-fluoro-2,6-dimethylphenoxy)-5-(2-hydroxypropan-2-yl)phenyl]-1-methyl-2-oxo-1,2-dihydropyridin-4-yl}oxy)cyclohexyl]-4-methyl-4,6-diazaspiro[2.4]heptane-5,7-dione] | 4.48
5 | Cc1cc(F)cc(C)c1Oc1ccc(C(C)(C)O)cc1-c1cn(C)c(=O)cc1O[C@H]1CC[C@H](n2cccnc2=O)CC1 [Example 143, 1-[trans-4-({5-[2-(4-fluoro-2,6-dimethylphenoxy)-5-(2-hydroxypropan-2-yl)phenyl]-1-methyl-2-oxo-1,2-dihydropyridin-4-yl}oxy)cyclohexyl]pyrimidin-2(1H)-one] | 94.7
6 | Cc1cc(F)cc(C)c1Oc1ccc(C(C)(C)O)cc1-c1cn(C)c(=O)cc1O[C@H]1CC[C@H](N2CC(C)(C)CC2=O)CC1 [Example 120, 4-{[trans-4-(4,4-dimethyl-2-oxopyrrolidin-1-yl)cyclohexyl]oxy}-5-[2-(4-fluoro-2,6-dimethylphenoxy)-5-(2-hydroxypropan-2-yl)phenyl]-1-methylpyridin-2(1H)-one] | 38
7 | Cc1cc(F)cc(C)c1Oc1ccc(C(C)(C)O)cc1-c1cn(C)c(=O)cc1O[C@H]1CC[C@H](NC(=O)C(C)(C)N)CC1 [Example 139, N-[trans-4-({5-[2-(4-fluoro-2,6-dimethylphenoxy)-5-(2-hydroxypropan-2-yl)phenyl]-1-methyl-2-oxo-1,2-dihydropyridin-4-yl}oxy)cyclohexyl]-2-methylalaninamide] | 8.42
8 | Cc1cc(F)cc(C)c1Oc1ccc(C(C)(C)O)cc1-c1cn(C)c(=O)cc1O[C@H]1CC[C@H](NC(=O)C2(C#N)CCC2)CC1 [Example 88, 1-cyano-N-[trans-4-({5-[2-(4-fluoro-2,6-dimethylphenoxy)-5-(2-hydroxypropan-2-yl)phenyl]-1-methyl-2-oxo-1,2-dihydropyridin-4-yl}oxy)cyclohexyl]cyclobutane-1-carboxamide] | 3.82
9 | Cc1cccc(C)c1Oc1ccc(C(C)(C)O)cc1-c1cn(C)c(=O)cc1NC1CCN(C(=O)OC(C)(C)C)C1 (stereo not shown) [Example 11, tert-butyl 3-({5-[2-(2,6-dimethylphenoxy)-5-(2-hydroxypropan-2-yl)phenyl]-1-methyl-2-oxo-1,2-dihydropyridin-4-yl}amino)pyrrolidine-1-carboxylate] | 4.44
10 | COCC(=O)N[C@H]1CC[C@H](Oc2cc(=O)n(C)cc2-c2cc(C(C)(C)O)ccc2Oc2c(C)cc(F)cc2C)CC1 [Example 53, N-[trans-4-({5-[2-(4-fluoro-2,6-dimethylphenoxy)-5-(2-hydroxypropan-2-yl)phenyl]-1-methyl-2-oxo-1,2-dihydropyridin-4-yl}oxy)cyclohexyl]-2-methoxyacetamide] | 2.95
11 | Cc1cc(F)cc(C)c1Oc1ccc(C(C)(C)O)cc1-c1cn(C)c(=O)cc1O[C@H]1CC[C@H](N2CCOCC2=O)CC1 [Example 40, 4-[trans-4-({5-[2-(4-fluoro-2,6-dimethylphenoxy)-5-(2-hydroxypropan-2-yl)phenyl]-1-methyl-2-oxo-1,2-dihydropyridin-4-yl}oxy)cyclohexyl]morpholin-3-one] | 2.59
12 | Cc1cc(F)cc(C)c1Oc1ccc(C(C)(C)O)cc1-c1cn(C)c(=O)cc1O[C@H]1CC[C@H](NC(=O)CCO)CC1 [Example 49, N-[trans-4-({5-[2-(4-fluoro-2,6-dimethylphenoxy)-5-(2-hydroxypropan-2-yl)phenyl]-1-methyl-2-oxo-1,2-dihydropyridin-4-yl}oxy)cyclohexyl]-3-hydroxypropanamide] | 4.83
13 | Cc1cc(F)cc(C)c1Oc1ccc(C(C)(C)O)cc1-c1cn(C)c(=O)cc1O[C@H]1CC[C@H](N2CCCN(C)C2=O)CC1 [Example 41, 1-[trans-4-({5-[2-(4-fluoro-2,6-dimethylphenoxy)-5-(2-hydroxypropan-2-yl)phenyl]-1-methyl-2-oxo-1,2-dihydropyridin-4-yl}oxy)cyclohexyl]-3-methyltetrahydropyrimidin-2(1H)-one] | 1.2
14 | COC(=O)NC[C@H]1C[C@H](Oc2cc(=O)n(C)cc2-c2cc(C(C)(C)O)ccc2Oc2c(C)cc(F)cc2C)C1 [Example 7, methyl {[trans-3-({5-[2-(4-fluoro-2,6-dimethylphenoxy)-5-(2-hydroxypropan-2-yl)phenyl]-1-methyl-2-oxo-1,2-dihydropyridin-4-yl}oxy)cyclobutyl]methyl}carbamate] | 3.11
15 | CC(=O)N[C@H]1CC[C@H](N(C)c2cc(=O)n(C)cc2-c2cc(C(C)(C)O)ccc2Oc2c(C)cc(F)cc2C)CC1 [Example 13, N-{trans-4-[{5-[2-(4-fluoro-2,6-dimethylphenoxy)-5-(2-hydroxypropan-2-yl)phenyl]-1-methyl-2-oxo-1,2-dihydropyridin-4-yl}(methyl)amino]cyclohexyl}acetamide] | 1070
16 | Cc1cc(F)cc(C)c1Oc1ccc(C(C)(C)O)cc1-c1cn(C)c(=O)cc1O[C@H]1CC[C@H](N2C(=O)C(C)(C)N(C)C2C)CC1 (relative stereo) [Example 134, 5-[2-(4-fluoro-2,6-dimethylphenoxy)-5-(2-hydroxypropan-2-yl)phenyl]-1-methyl-4-{[trans-4-(2,3,4,4-tetramethyl-5-oxoimidazolidin-1-yl)cyclohexyl]oxy}pyridin-2(1H)-one] | 9.18
17 | CCNC(=O)[C@H]1C[C@@H](Oc2cc(=O)n(C)cc2-c2cc(C(C)(C)O)ccc2Oc2c(C)cc(F)cc2C)C1 [Example 95, cis-N-ethyl-3-({5-[2-(4-fluoro-2,6-dimethylphenoxy)-5-(2-hydroxypropan-2-yl)phenyl]-1-methyl-2-oxo-1,2-dihydropyridin-4-yl}oxy)cyclobutane-1-carboxamide] | 19
18 | CC(=O)NC12CCC(C(=O)N[C@H]3CC[C@H](Oc4cc(=O)n(C)cc4-c4cc(C(C)(C)O)ccc4Oc4c(C)cc(F)cc4C)CC3)(C1)C2 (relative stereo) [Example 137, 4-acetamido-N-[trans-4-({5-[2-(4-fluoro-2,6-dimethylphenoxy)-5-(2-hydroxypropan-2-yl)phenyl]-1-methyl-2-oxo-1,2-dihydropyridin-4-yl}oxy)cyclohexyl]bicyclo[2.1.1]hexane-1-carboxamide] | 3.54
19 | Cc1cc(F)cc(C)c1Oc1ccc(C(C)(C)O)cc1-c1cn(C)c(=O)cc1O[C@H]1CC[C@H](N2CCNC2=O)CC1 [Example 35, 5-[2-(4-fluoro-2,6-dimethylphenoxy)-5-(2-hydroxypropan-2-yl)phenyl]-1-methyl-4-{[trans-4-(2-oxoimidazolidin-1-yl)cyclohexyl]oxy}pyridin-2(1H)-one] | 0.933
20 | Cc1cc(F)cc(C)c1Oc1ccc(C(C)(C)O)cc1-c1cn(C)c(=O)cc1O[C@H]1CC[C@H](N2CCCCC2=O)CC1 [Example 29, 5-[2-(4-fluoro-2,6-dimethylphenoxy)-5-(2-hydroxypropan-2-yl)phenyl]-1-methyl-4-{[trans-4-(2-oxopiperidin-1-yl)cyclohexyl]oxy}pyridin-2(1H)-one] | 1.52
21 | Cc1cc(F)cc(C)c1Oc1ccc(C(C)(C)O)cc1-c1cn(C)c(=O)cc1O[C@H]1C[C@@H](C(=O)N2CCCC2)C1 [Example 96, 5-[2-(4-fluoro-2,6-dimethylphenoxy)-5-(2-hydroxypropan-2-yl)phenyl]-1-methyl-4-{[cis-3-(pyrrolidine-1-carbonyl)cyclobutyl]oxy}pyridin-2(1H)-one] | 10.8
22 | CC(=O)N[C@H]1CC[C@H](Nc2cc(=O)n(C)cc2-c2cc(C(C)(C)O)ccc2Oc2c(C)cc(F)cc2C)CC1 [Example 19, N-[trans-4-({5-[2-(4-fluoro-2,6-dimethylphenoxy)-5-(2-hydroxypropan-2-yl)phenyl]-1-methyl-2-oxo-1,2-dihydropyridin-4-yl}amino)cyclohexyl]acetamide] | 3.52
23 | CC(=O)N[C@H]1C[C@H](Oc2cc(=O)n(C)cc2-c2cc(C(C)(C)O)ccc2Oc2c(C)cc(F)cc2C)C1 [Example 100, N-[trans-3-({5-[2-(4-fluoro-2,6-dimethylphenoxy)-5-(2-hydroxypropan-2-yl)phenyl]-1-methyl-2-oxo-1,2-dihydropyridin-4-yl}oxy)cyclobutyl]acetamide] | 9.97
24 | Cc1cc(F)cc(C)c1Oc1ccc(C(C)(C)O)cc1-c1cn(C)c(=O)cc1O[C@H]1CC[C@H](NC(=O)N2CCOCC2)CC1 [Example 122, N-[trans-4-({5-[2-(4-fluoro-2,6-dimethylphenoxy)-5-(2-hydroxypropan-2-yl)phenyl]-1-methyl-2-oxo-1,2-dihydropyridin-4-yl}oxy)cyclohexyl]morpholine-4-carboxamide] | 13.1
25 | C=CCCCC(=O)N[C@H]1CC[C@H](Oc2cc(=O)n(C)cc2-c2cc(C(C)(C)O)ccc2Oc2c(C)cc(F)cc2C)CC1 [Example 36, N-[trans-4-({5-[2-(4-fluoro-2,6-dimethylphenoxy)-5-(2-hydroxypropan-2-yl)phenyl]-1-methyl-2-oxo-1,2-dihydropyridin-4-yl}oxy)cyclohexyl]hex-5-enamide] | 3.31

Reference: patent US20210047304A1, “Bromodomain Inhibitors” (AbbVie Inc., priority 2016, published 2021)
